Reference: PubChem BioAssay AID504466 (National Center for Advancing Translational Sciences (NCATS), 2011)
Screen size: about 330,000 compounds; about 4,200 (1.3%) were called active. Inconclusive results, whose numbers are uncertain, are shown with a selection of clear calls. Calls come from the whole dose curve; as a rule, active = well fitted activation curve with a large enough effect; inconclusive = small, poorly fitted or top-dose-only effect; inactive = no such curve, though single readings can be large or run the other way. Where the call is inconclusive, the potency comes from a doubtful curve fit.

test: qHTS screen for small molecules that induce genotoxicity in human embryonic kidney (HEK293T) cells expressing luciferase-tagged ELG1; conditions: HEK293T ELG1-luciferase reporter, luminescence, 16 h; series mostly up to 46 µM; activity change, positive = activation: at the top concentration; note: nearly all actives have a fitted effect of over 60% in size; for activity change, positive = activation: % of control where 0% means no effect
In short: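 16 hr compound incubation (37 °C, 5% CO2) of HEK293T cells carrying luciferase-tagged ELG1; luciferase then measured by ONE-Glo luminescence after 30 min at RT.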
Potency is the fitted concentration of half-maximal effect; tags give direction and shape of the fitted curve.

Question: Which “activity change, positive = activation” value does the source give for `Cc1ccccc1N=C1NC(=O)/C(=C/c2cccn2C)S1` here?
Answer: inactive: 0.275%

Question: With `COc1ccc(C2C(C#N)=C3NC(=O)c4c(sc5c4CCCCC5)N3C3=C2C(=O)CC(C)(C)C3)cc1` (stereo unspecified) as the molecule, how does the “activity change, positive = activation” value read?
Answer: inactive: -9.23%

Question: For `O=C(Nc1ccc(N2CCCCCC2)cc1)c1ccccc1Cl`, which Potency is on record?
Answer: inconclusive: 16.4 µM [activator, partial curve, poor fit]

Question: For `CC(C)Oc1cc2oc(=O)c3c(c2cc1Cl)CCC3`, which Potency is on record?
Answer: inconclusive: 11.6 µM [activator, partial curve, poor fit]

Question: Which “activity change, positive = activation” value does the source give for `C[C@@H](OC(=O)c1[nH]cnc1C(=O)NCc1ccc(CNC(=O)OC(C)(C)C)cc1)c1ccccc1` here?
Answer: inactive: -13%

Question: Which Potency does the source give for `Cc1ccc(/C(N)=N/OC(=O)c2ccco2)cc1` here?
Answer: inconclusive: 2.31 µM [activator, full curve]

Question: Which Potency does the source give for `NC(=O)N/N=C/c1ccccc1OCc1cccc2ccccc12` here?
Answer: inconclusive: 32.6 µM [activator, partial curve, poor fit]

Question: Which Potency does the source give for `O=C(Nc1ccc2c(c1)CCC2)C1COc2ccccc2O1` (stereo unspecified) here?
Answer: active: 20.6 µM

Question: For `O=C(CCNS(=O)(=O)c1cccc2nsnc12)Nc1ccc2c(c1)OCCO2`, which “activity change, positive = activation” value is on record?
Answer: inactive: 6.61%

Question: Which Potency does the source give for `Cc1ccc(CSc2nc3ccncc3[nH]2)cc1` here?
Answer: inconclusive: 0.517 µM [activator, full curve, poor fit]

Question: For `CC(=O)c1cc2c(cc1NS(=O)(=O)c1ccccc1)OCO2`, which Potency is on record?
Answer: active: 16.4 µM

Question: With `Cc1cc(C)c2c(=O)n(CC(=O)Nc3ccc(Br)c(C)c3)sc2n1` as the molecule, how does the “activity change, positive = activation” value read?
Answer: inactive: 0.236%

Question: With `Cc1ccc(-n2c(C)cc(C(=O)COc3cccnc3[N+](=O)[O-])c2C)cc1` as the molecule, how does the Potency read?
Answer: inconclusive: 18.4 µM [activator, single point]

Question: Which Potency does the source give for `Cc1ccc(C)c(N2CCN(C(=O)CCc3nc(-c4cccc(Cl)c4)no3)CC2)c1` here?
Answer: inconclusive: 16.4 µM [activator, partial curve]

Question: With `CS(=O)(=O)c1ccc(Cl)c(NC(=O)COC(=O)CNC(=O)c2sc3ccccc3c2Cl)c1` as the molecule, how does the “activity change, positive = activation” value read?
Answer: inactive: -3.68%

Question: With `CCc1c(C(=O)Nc2cc(C)ccc2OC)[nH]c(C)c1C(C)=O` as the molecule, how does the Potency read?
Answer: inconclusive: 8.91 µM [activator, partial curve, poor fit]

Question: With `NC(=O)c1ccsc1NC(=O)COC(=O)/C=C/c1ccccc1` as the molecule, how does the “activity change, positive = activation” value read?
Answer: inactive: -17.4%

Question: With `C/C(=N\NC(=O)c1c(Cl)cnn1C)c1ccc(NC(=O)c2ccc(Br)o2)cc1` as the molecule, how does the Potency read?
Answer: inconclusive: 29.1 µM [activator, single point]

Question: With `Cc1cc(-c2cc(C(=O)NCc3ccccc3)on2)nc(S(C)(=O)=O)n1` as the molecule, how does the “activity change, positive = activation” value read?
Answer: inactive: 15.2%

Question: With `CC(=O)Nc1ccc2c(c1)CCc1ccccc1-2` as the molecule, how does the Potency read?
Answer: inconclusive: 20.6 µM [activator, partial curve, poor fit]

Question: Which Potency does the source give for `COc1ccc(-c2nc(C#N)c(NCCCn3ccnc3)o2)cc1OC` here?
Answer: inconclusive: 10 µM [activator, partial curve, poor fit]

Question: Which “activity change, positive = activation” value does the source give for `CCCCn1c(Cl)nc2c1c(=O)n(C)c(=O)n2C` here?
Answer: inactive: -0.169%

Question: With `COc1ccc(/C=C/C(=O)OCn2c(SC)nnc(C)c2=O)cc1OC` as the molecule, how does the Potency read?
Answer: inconclusive: 7.3 µM [activator, partial curve, poor fit]

Question: Which Potency does the source give for `CC(=O)Nc1ccc(N=Nc2c(C)[nH]n(C(N)=S)c2=O)cc1` here?
Answer: inconclusive: 7.3 µM [activator, partial curve, poor fit]

Question: Which “activity change, positive = activation” value does the source give for `NS(=O)(=O)c1ccc(CCNC(=O)c2coc3ccccc3c2=O)cc1` here?
Answer: inactive: -1.01%

Question: Which Potency does the source give for `O=C(NCC1COc2ccccc2O1)c1ccccc1` (stereo unspecified) here?
Answer: inconclusive: 10.3 µM [activator, partial curve, poor fit]

Question: For `COc1ccccc1C(=O)NCCN=C1NS(=O)(=O)c2ccccc21`, which “activity change, positive = activation” value is on record?
Answer: inactive: 1.85%

Question: For `O=C(N/N=C/C(Br)=C/c1ccccc1)c1cnccn1`, which Potency is on record?
Answer: inconclusive: 20.6 µM [activator, partial curve, poor fit]

Question: With `CCC(=O)c1cn(CC(=O)NCC2CCCO2)c2ccccc12` (stereo unspecified) as the molecule, how does the “activity change, positive = activation” value read?
Answer: inactive: 5.53%

Question: For `NC(=O)CSCc1nc2ccccc2s1`, which Potency is on record?
Answer: inconclusive: 29.1 µM [activator, partial curve, poor fit]

Question: Which Potency does the source give for `Cc1ccc(-c2nc3ccccc3o2)cc1NC(=O)c1ccc2c(c1)OCO2` here?
Answer: active: 7.31 µM

Question: With `Cc1ccc(C)n1-c1ccc(C(=O)N/N=C/c2ccncc2)cc1` as the molecule, how does the “activity change, positive = activation” value read?
Answer: inactive: 14.6%

Question: Which Potency does the source give for `Clc1ccccc1/C=N/NC1=Nc2cccc3cccc1c23` here?
Answer: active: 16.4 µM

Question: For `Cc1cc(NC(=O)COC(=O)CNC(=O)c2cccs2)c([N+](=O)[O-])cc1C`, which “activity change, positive = activation” value is on record?
Answer: inactive: 0.963%

Question: With `CSc1cccc(NC(=O)c2sc3nc4n(c(=O)c3c2C)CCC4)c1` as the molecule, how does the Potency read?
Answer: inconclusive: 20.6 µM [activator, partial curve, poor fit]

Question: Which Potency does the source give for `CCOC(=O)c1c(C)nc2cc(C)ccn12` here?
Answer: inconclusive: 20.6 µM [activator, partial curve, poor fit]

Question: For `Cc1c(C(=O)Nc2ccccc2F)sc2nc3n(c(=O)c12)CCC3`, which Potency is on record?
Answer: inconclusive: 16.4 µM [activator, partial curve]

Question: Which Potency does the source give for `Cc1csc(NC(=O)Nc2ccccc2[N+](=O)[O-])n1` here?
Answer: inconclusive: 9.2 µM [activator, partial curve, poor fit]

Question: For `CCC(=O)N1CCN(c2ccc(NC(=O)COc3ccccc3Cl)cc2)CC1`, which “activity change, positive = activation” value is on record?
Answer: inactive: -15.1%

Question: Which Potency does the source give for `CC(C)c1ccc(C(=O)NC2=NCCS2)cc1` here?
Answer: active: 1.64 µM

Question: For `COc1ccc(C(=O)CSC#N)cc1OC`, which Potency is on record?
Answer: inconclusive: 23.1 µM [activator, single point]

Question: Which Potency does the source give for `O=[N+]([O-])c1cccc(N=Cc2sc3ccccc3c2O)c1` here?
Answer: inconclusive: 32.6 µM [activator, partial curve, poor fit]

Question: For `COC(=O)c1ccc2nc(NC(=O)CSCC(=O)OCC(=O)c3ccccc3)sc2c1`, which “activity change, positive = activation” value is on record?
Answer: inactive: 14.9%

Question: Which “activity change, positive = activation” value does the source give for `COc1ccc(C(=O)NC(=S)Nc2ccc(Cl)cn2)cc1OC` here?
Answer: inactive: 7.16%

Question: Which “activity change, positive = activation” value does the source give for `Cc1c(Cl)cccc1-n1c(SCC(=O)N2CCC(C(=O)O)CC2)nnc1-c1ccncc1` here?
Answer: inactive: 3.12%

Question: For `N/C(=N\OC(=O)CC1CCCCC1)c1ccc(Cl)cc1`, which Potency is on record?
Answer: inconclusive: 13 µM [activator, partial curve, poor fit]

Question: For `CCOc1ccc(/C=C2\SC(=S)N(CCCC(=O)NCCCN3CCOCC3)C2=O)cc1`, which “activity change, positive = activation” value is on record?
Answer: inactive: -15.6%

Question: Which Potency does the source give for `O=C(Nc1nc2ccccc2[nH]1)C1CCCC1` here?
Answer: inconclusive: 4.61 µM [activator, full curve, poor fit]

Question: Which Potency does the source give for `COc1ccc2oc(=O)c(C(=O)NCc3ccco3)cc2c1` here?
Answer: inconclusive: 29.1 µM [activator, partial curve, poor fit]

Question: With `Oc1ccccc1-c1cc(-c2ccc3c(c2)OCCO3)n[nH]1` as the molecule, how does the Potency read?
Answer: active: 0.366 µM

Question: For `CC(=O)c1ccc(NC(=O)CN2CCCC2)cc1`, which Potency is on record?
Answer: inconclusive: 20.6 µM [activator, partial curve, poor fit]

Question: With `O=[N+]([O-])c1ccc(/C=N/Nc2ncc(-c3ccccc3)cn2)cc1` as the molecule, how does the “activity change, positive = activation” value read?
Answer: inactive: 6.35%

Question: Which Potency does the source give for `Cc1ccc(NC(=O)c2ccc(OC(=O)c3ccco3)cc2)cc1` here?
Answer: active: 8.2 µM

Question: For `COc1ccc(-c2ccc3oc(-c4ccsc4)cc(=O)c3c2)cn1`, which Potency is on record?
Answer: inconclusive: 5.17 µM [activator, partial curve, poor fit]

Question: With `O=C(Nc1cnc2ccccc2c1)C1COc2ccccc2O1` (stereo unspecified) as the molecule, how does the Potency read?
Answer: inconclusive: 4.47 µM [activator, partial curve]

Question: With `COc1cc(OC)cc(C(=O)Nc2cccc(C(C)=O)c2)c1` as the molecule, how does the Potency read?
Answer: inconclusive: 25.9 µM [activator, single point]

Question: For `Clc1cccc(Cl)c1C1Nc2cccc3cccc(c23)N1`, which Potency is on record?
Answer: inconclusive: 1.83 µM [activator, partial curve]

Question: With `Cc1ccc(NC(=O)CSc2nccn2Cc2ccco2)c(C)c1` as the molecule, how does the Potency read?
Answer: active: 5.17 µM

Question: Which “activity change, positive = activation” value does the source give for `O=C(NCc1ccc2c(c1)OCO2)C1CC(=O)N(CCc2ccccc2)C1` (stereo unspecified) here?
Answer: inactive: -0.265%

Question: Which “activity change, positive = activation” value does the source give for `Cc1ccc(-c2cc(C(=O)NC3CCCCC3)no2)cc1` here?
Answer: inactive: 17.5%

Question: With `Nc1nc(Nc2ccc(Cl)cc2Cl)nc(C(F)(F)F)n1` as the molecule, how does the Potency read?
Answer: active: 18.4 µM

Question: For `COc1ccccc1/C=N/Nc1nncc2ccccc12`, which Potency is on record?
Answer: inconclusive: 13 µM [activator, partial curve]

Question: For `COc1ccccc1C(=O)CSc1ccccn1`, which Potency is on record?
Answer: inconclusive: 23.1 µM [activator, single point]

Question: For `Cc1cc2ncc(Cl)nc2cc1C`, which “activity change, positive = activation” value is on record?
Answer: inactive: 0.872%

Question: For `CCC(=O)N1CCN(c2ccc(NC(=O)c3ccc4c(c3)OCCO4)cc2)CC1`, which Potency is on record?
Answer: inconclusive: 9.2 µM [activator, partial curve, poor fit]

Question: With `CC(=O)n1nc(-c2ccccc2)nc1NCc1ccc(N(C)C)cc1` as the molecule, how does the Potency read?
Answer: inconclusive: 23.1 µM [activator, single point]

Question: For `COc1cccc(-c2cc(C(=O)Nc3cccnc3)no2)c1`, which Potency is on record?
Answer: inconclusive: 18.4 µM [activator, single point]

Question: With `Cc1ccc(S(=O)(=O)N2CCN(C(=O)Cc3c(F)cccc3Cl)CC2)cc1` as the molecule, how does the “activity change, positive = activation” value read?
Answer: inactive: -7.53%

Question: Which “activity change, positive = activation” value does the source give for `COc1ccc2[nH]c(=O)cc(C(=O)O)c2c1` here?
Answer: inactive: 0.102%

Question: Which Potency does the source give for `Cc1cc(C(=O)Nc2cccc(C(=O)O)c2)oc1C` here?
Answer: inconclusive: 0.092 µM [activator, full curve, poor fit]

Question: For `CCOC(=O)C1=C(CC)Nc2ccccc2N=C1NC(=O)Cn1cnc2ccccc2c1=O`, which “activity change, positive = activation” value is on record?
Answer: inactive: 0.559%

Question: With `CCOC(=O)CN1C(=O)SC(Nc2ccc(C)cc2)C1=O` (stereo unspecified) as the molecule, how does the “activity change, positive = activation” value read?
Answer: inactive: 0.315%

Question: For `COc1cccc(/C=N/Nc2nccnc2Cl)c1O`, which Potency is on record?
Answer: active: 2.59 µM

Question: With `CCCn1c(=O)[nH]c(=O)c2c1nc(-c1ccc(OC(F)F)cc1)n2CCN1CCOCC1` as the molecule, how does the Potency read?
Answer: inconclusive: 5.17 µM [activator, partial curve, poor fit]

Question: With `CCC(=O)c1ccc(OCC(O)Cn2nnc3ccccc32)cc1` (stereo unspecified) as the molecule, how does the Potency read?
Answer: inconclusive: 23.1 µM [activator, partial curve, poor fit]

Question: For `COc1cc2ccccc2cc1C(=O)Nc1ccc(C)cc1`, which Potency is on record?
Answer: inconclusive: 9.2 µM [activator, partial curve]
